From patent US8114619B2, “Methods for diagnosis and optimizing treatment of multiple sclerosis” (The Johns Hopkins University, priority 2006, dated 2012)
At least one read-out could not be matched to a standard name with certainty.

System: rat mixed hippocampal cultures
Assay: in vitro neuroprotection assay against 3-NP, MTT viability
Settings: for % Protection: vs 3-NP, increase in cultured neuron viability in the presence of 3-nitropropionic acid (Table 5); for % Protection vs 3NP: increase in cultured neuron viability in the presence of 3-nitropropionic acid (Table 6)
From the text: 5, 2007. In Tables 5 and 6 “% Protection vs 3-NP” refers to the increase in cultured neuron viability in the presence of the oxidative stressor 3-nitropropionic acid. For details of the assay, see Example 3 below.
We sought to evaluate the protective efficacy of a number of modified terpenoid compounds against the against many different neurotoxins, ranging from the chemotoxic 6-OHDA, NMDA, 3-nitropropionic acid (3-NP), and viral proteins such as Tat and gp120. Thus, we established an in vitro neuroprotection assay using rat mixed hippocampal cultures, in which we evaluated the protective efficacy of neuroprotective compounds disclosed herein. The oxidative stressor 3-NP was used to elicit toxicity in the rat hippocampal cultures to mimic the oxidative damage, reactive oxygen species production and ensuing neurodegeneration resulting from HIV infection. Another measure of neurotoxicity which results from HIV infection was evaluated by exposure of the hippocampal cultures to HIV-1 Tat (Li et al (2005), Neurotox Res, 8(1-2):119-134).
Rat mixed hippocamal neuronal cultures were generated from freshly dissected rat hippocampi (embryonic day 18) in neurobasal media containing 5% fetal bovine serum and 2% B27 supplement. The cells were plated into 96 well plates at a density of 4×10^5 cells/mL and routinely used on days 11-14 following culturing. Cell viability was assessed with MTT [3-(4,5-dimethylthiazol-2-yl)-2,5-diphenyltetrazolium bromide] assay. The MTT assay is based on the ability of a mitochondrial dehydrogenase enzyme from viable cells to cleave the tetrazolium rings of the pale yellow MTT and form dark blue formazan crystals. See Mosmann (1983), J Immunol Methods, 65(1-2):55-63. These crystals are largely impermeable to cell membranes, and thus accumulate within healthy cells. The resultant formazan precipitates are solubilized with DMSO and read on a multiwell scanning spectrophotometer (ELISA reader). The number of surviving cells is directly proportional to the level of the formazan product created.
Mixed hippocampal cultures were incubated with 3-NP (0.5-10 mM) for 18 hours and then assessed for viability using an MTT assay.
Cultures were preincubated with GPI 1046 or Resveratrol for one hour prior to an 18 hour exposure to 3 mM 3-NP. […] The same neuroprotective compounds were evaluated for efficacy against HIV-1 Tat protein toxicity using the same 1 hour preincubation protocol.

Row | SMILES | % Protection | % Protection vs 3NP
1 | CC(=O)O[C@@H]1CC2C(C)(CC[C@H](O)C2(C)C)C2CC[C@]3(C)C(=CC(=O)O[C@H]3c3ccoc3)C21C (stereo partly drawn) [3beta- HYDROXYDEOXODIHYDRODEOXY- GEDUNIN] | 56% | 
2 | CC(=O)OC1CC[C@@]2(C)C(C[C@@H](OC(C)=O)[C@]3(C)C2CC[C@@]2(C)[C@H](c4ccoc4)OC(=O)[C@H]4O[C@]423)C1(C)C (stereo partly drawn) [3beta- ACETOXYDEOXODIHYDRO- GEDUNIN] | 39% | 
3 | CC1(C)C2CC(=O)[C@]3(C)C(CC[C@@]4(C)[C@H](c5ccoc5)OC(=O)[C@H]5O[C@]543)[C@@]2(C)C(=O)C[C@H]1O (some centres unmarked) [1,7-DIDEACETOXY-1,7- DIOXO-3- DEACETYLKHIVORIN] | 15% | 
4 | C=C1C2CC[C@]3(C)[C@H](c4ccoc4)OC(=O)C[C@]13OC1C[C@H](OC(C)=O)C(C)(C)[C@H](CC(=O)OC)[C@]12C (stereo partly drawn) [3beta- ACETOXYDEOXY[…], METHYL ESTER] | 128% | 
5 | CC1(C)C(=O)[C@@H]2O[C@@H]2[C@@]2(C)C1C[C@@H](O)[C@]1(C)C2CC[C@@]2(C)[C@H](c3ccoc3)OC(=O)C3OC321 (stereo partly drawn) [1,2alpha- EPOXYDEACETOXYDIHYDRO- GEDUNIN] | 25% | 
6 | CC(=O)OC1C=C[C@@]2(C)C(C[C@@H](OC(C)=O)[C@@]3(C)C4=CC(=O)OC(c5ccoc5)[C@]4(C)CCC23)C1(C)C (some centres unmarked) [DE[…]] | 54% | 
7 | CC(=O)O[C@@H]1CC2C(C)(C)C3(CC[C@]2(C)C2CC[C@@]4(C)[C@H](c5ccoc5)OC(=O)C5OC54[C@@]21C)SCCS3 (some centres unmarked) [DIHYDROGEDUNIN ETHANEDITHIOKETAL] | 19% | 
8 | Cc1cccc(N(C)C(=S)Oc2ccc3ccccc3c2)c1 [TOLNAFTATE, reference compound] |  | 66.83%
9 | CC(=O)OC1CC2C(C)(C)CCC(=O)[C@]2(C)C2CC[C@@]3(C)[C@H](c4ccoc4)OC(=O)C4OC43[C@]12C (some centres unmarked) [2,3-DIHYDROISOGEDUNIN] | 44% | 
10 | CC(=O)O[C@@H]1CC2C(C)(C)[C@H](O)C=C[C@]2(C)C2CC[C@@]3(C)[C@H](c4ccoc4)OC(=O)C4OC43[C@@]21C (some centres unmarked) [GEDUNOL] | 45% | 
11 | CC1(C)C2CC(=O)[C@]3(C)C(CC[C@@]4(C)[C@H](c5ccoc5)OC(=O)C5OC543)[C@@]2(C)[C@@H](O)C[C@H]1O (some centres unmarked) [1,3-DIDEACETYL-7- DEACETOXY-7- OXOKHIVORIN] | 15% | 
12 | CC(=O)OC1CC2C(C)(C)CCC[C@]2(C)C2CC[C@]3(C)C(=CC(=O)O[C@H]3c3ccoc3)[C@]12C (some centres unmarked) [DEOXODEOXYDIHYDROGEDUNIN] | 77% | 
13 | COC(=O)[C@@H]1OC(=O)C2OC23[C@@]1(C)CCC1[C@]2(C)C(C[C@@H](O)[C@]13C)C(C)(C)[C@H](OC(C)=O)C[C@@H]2OC(C)=O (some centres unmarked) [DESACETYL (7)[…], METHYL ESTER] | 58% | 
14 | CC(=O)OC1C[C@H](OC(C)=O)[C@@]2(C)C(C[C@@H](OC(C)=O)[C@@]3(C)C4=CC(=O)OC(c5ccoc5)[C@]4(C)CCC23)C1(C)C (some centres unmarked) [DEOXYKHIVORN] | 36% | 
15 | CC(=O)OC1CC2C(C)(C)CCC[C@]2(C)C2CC[C@@]3(C)[C@H](c4ccoc4)OC(=O)C4OC43[C@]12C (some centres unmarked) [DEOXODIHYDROGEDUNIN] | 101% | 
16 | C=C1C2CC[C@@]3(C)[C@H](c4ccoc4)OC(=O)C[C@]13O[C@H]1CC(=O)C(C)(C)C(CC(=O)OC)C21C (some centres unmarked) [[…], METHYL ESTER] | 33% | 
17 | Clc1ccc(COC(Cn2ccnc2)c2ccc(Cl)cc2Cl)c(Cl)c1 (centres unmarked) [MICONAZOLE NITRATE, reference compound] |  | 81.61%
18 | CC(=O)O[C@@H]1CC[C@@]2(C)C(C[C@@H](OC(C)=O)[C@@]3(C)C4=CC(=O)O[C@@H](c5ccoc5)C4CCC23)C1(C)C (stereo partly drawn) [3alpha- ACETOXYDIHYDRODEOXYGUEDUNIN] | 151% | 
19 | COC(=O)[C@@H]1OC(=O)C2OC23[C@@]1(C)CCC1[C@]2(C)C(CC(=O)[C@]13C)C(C)(C)[C@H](OC(C)=O)C[C@@H]2OC(C)=O (some centres unmarked) [7-DEACETOXY-7-OXO- […], METHYL ESTER] | 42% | 
20 | Clc1ccc(COC(Cn2ccnc2)c2ccc(Cl)cc2Cl)cc1 (centres unmarked) [ECONAZOLE NITRATE, reference compound] |  | 141.18%
21 | Fc1ccc(C(c2ccccc2)(c2ccccc2F)n2ccnc2)cc1 (centres unmarked) [FLUTRIMAZOLE, reference compound] |  | 46.85%
22 | Clc1ccccc1C(c1ccccc1)(c1ccccc1)n1ccnc1 [CLOTRIMAZOLE, reference compound] |  | 12.57%

Row | SMILES | % Protection | % Protection vs 3NP
23 | CC(=O)O[C@@H]1CC2C(C)(C)C(=O)[C@H]3O[C@H]3[C@]2(C)C2CC[C@@]3(C)C(=CC(=O)O[C@@H]3c3ccoc3)[C@@]21C (stereo partly drawn) [1 (2)alpha- EPOXYDEOXYDIHYDROGEDUNIN] | 14% | 
24 | CC(=O)OC1CC[C@@]2(C)C(C[C@H](OC(C)=O)[C@@]3(C)C4=CC(=O)OC(c5ccoc5)[C@]4(C)CCC23)C1(C)C (stereo partly drawn) [3beta, 7-beta- DIACETOXYDEOXODEACETOXY- DEOXYDIHYDROGEDUNIN] | 61% | 
25 | CC(=O)OCC(COC(C)=O)OC(C)=O [TRIACETIN, reference compound] |  | 45.14%
26 | CC(=O)O[C@H]1C[C@@H](OC(C)=O)C(C)(C)C2C[C@@H](O)[C@]3(C)C(CC[C@@]4(C)[C@H](c5ccoc5)OC(=O)[C@H]5O[C@]543)[C@]21C (some centres unmarked) [7-DEACETYLKHIVORIN] | 32% | 
27 | CC(=O)OC1CC2C(C)(C)[C@@H](O)CC[C@]2(C)C2CC[C@@]3(C)[C@H](c4ccoc4)OC(=O)[C@H]4O[C@]43[C@]12C (stereo partly drawn) [3beta- HYDROXYDEOXODIHYDROGEDUNIN] | 82% | 
28 | Clc1ccc(CSC(Cn2ccnc2)c2ccc(Cl)cc2Cl)cc1 (centres unmarked) [SULCONAZOLE NITRATE, reference compound] |  | 18.21%
29 | CC(=O)OC1C[C@H](OC(C)=O)[C@@]2(C)C(CC(=O)[C@]3(C)C2CC[C@@]2(C)[C@H](c4ccoc4)OC(=O)[C@H]4O[C@]423)C1(C)C (some centres unmarked) [7-DEACETOXY-7- OXOKHIVORIN] | 36% | 
30 | CC(=O)O[C@@H]1CC2C(C)(C)C=CC(=O)[C@]2(C)C2CC[C@@]3(C)C(c4ccoc4)OC(=O)C4OC43[C@@]21C (some centres unmarked) [ISOGEDUNIN] | 50% | 
31 | CC1(C)C(=O)C=C[C@@]2(C)C1CC[C@]1(C)C2CC[C@@]2(C)[C@H](c3ccoc3)OC(=O)[C@H]3O[C@]321 (some centres unmarked) [DEACETOXY-7-OXOGEDUNIN] | 38% | 
32 | CC(=O)O[C@@H]1CC2C(C)(C)[C@H](O)C=C[C@]2(C)C2CC[C@]3(C)C(=CC(=O)O[C@H]3c3ccoc3)[C@@]21C (some centres unmarked) [3-alpa- HYDROXYDEOXYGEDUNIN] | 28% | 
33 | CC(=O)O[C@@H]1CC2C(C)(C)C(=O)C3OC3[C@]2(C)C2CC[C@@]3(C)[C@H](c4ccoc4)OC(=O)C4OC43[C@@]21C (some centres unmarked) [EPOXYGEDUNIN] | 69% | 
34 | CC1(C)C(=O)C=C[C@@]2(C)C1C[C@@H](O)[C@]1(C)C2CC[C@@]2(C)[C@H](c3ccoc3)OC(=O)[C@H]3O[C@]321 (some centres unmarked) [DEACETYLGEDUNIN] | 19% | 
35 | COc1ccc(/C=C/c2cc(O)cc(O[C@@H]3O[C@H](CO)[C@@H](O)[C@H](O)[C@H]3O)c2)cc1O [RHAPONTIN] |  | 22.12%
36 | Oc1ccc(C=Cc2cc(O)cc(O)c2)cc1 [RESVERATROL, reference compound] |  | 41.20%
37 | C=C1C2CC[C@@]3(C)[C@H](c4ccoc4)OC(=O)C[C@]13OC1CC(=O)C(C)(C)[C@H](C(O)C(=O)OC)[C@]12C (some centres unmarked) [6-HYDROXY[…] METHYL ESTER] | 26% | 
38 | CC(=O)OC1C[C@H](OC(C)=O)[C@@]2(C)C(C[C@H](OC(C)=O)[C@]3(C)C2CC[C@@]2(C)[C@H](c4ccoc4)OC(=O)[C@H]4O[C@]423)C1(C)C (some centres unmarked) [7-EPIKHIVORIN] | 65% | 
39 | CC(=O)O[C@@H]1CC2C(C)(C)[C@H](O)C[C@@H](O)[C@]2(C)C2CC[C@]3(C)[C@@H](c4ccoc4)OC(=O)[C@H]4O[C@]43[C@@]21C (some centres unmarked) [1,3-DIDEACETYLKHIVORIN] | 129% | 
40 | COC(=O)[C@@H]1OC(=O)C2OC23[C@@]1(C)CCC1[C@]2(C)C(C[C@H](O)[C@]13C)C(C)(C)[C@H](OC(C)=O)C[C@@H]2OC(C)=O (stereo partly drawn) [7beta-HYDROXY-7- DESACETOXY[…], METHYL ESTER] | 84% | 
41 | CC1(C)C(=O)C=C[C@@]2(C)C1C[C@@H](O)[C@@]1(C)C3=CC(=O)O[C@@H](c4ccoc4)[C@]3(C)CCC21 (some centres unmarked) [7-DEACETOXY-7- OXODEOXYGEDUNIN] | 24% | 
42 | CC(=O)OC1CC2C(C)(C)[C@@H](OC(C)=O)CC[C@]2(C)C2CC[C@]3(C)C(=CC(=O)O[C@H]3c3ccoc3)[C@]12C (stereo partly drawn) [3-DEOXO-3beta- ACETOXYDEOXY- DIHYDROGEDUNIN] | 56% | 
43 | CC(=O)O[C@@H]1CC2C(C)(C)C(=O)C=C[C@]2(C)C2CC[C@]3(C)[C@@H](c4ccoc4)OC(=O)[C@H]4O[C@]43[C@@]21C (some centres unmarked) [GEDUNIN] | 40% | 
44 | CC(=O)O[C@@H]1CC2C(C)(C)C(=O)CC[C@]2(C)C2CC[C@@]3(C)[C@H](c4ccoc4)OC(=O)C4OC43[C@@]21C (some centres unmarked) [DIHYDROGEDUNIN] | 28% | 
